Test results: article PMC4336329 (PLoS ONE, 2015)
Among all 310,000 compounds or so, about 2,200 (0.71%) showed an effect of 50% or more. The effect is printed as a negative number. Some of the results follow.

Each compound was assayed against human ether-à-go-go-related gene (hERG) potassium channel (human, UniProt Q12809) (assay: primary screen, population patch clamp on CHO cells stably expressing hERG).
human ether-à-go-go-related gene (hERG) potassium channel, sequence (Q12809 whole entry, looked up): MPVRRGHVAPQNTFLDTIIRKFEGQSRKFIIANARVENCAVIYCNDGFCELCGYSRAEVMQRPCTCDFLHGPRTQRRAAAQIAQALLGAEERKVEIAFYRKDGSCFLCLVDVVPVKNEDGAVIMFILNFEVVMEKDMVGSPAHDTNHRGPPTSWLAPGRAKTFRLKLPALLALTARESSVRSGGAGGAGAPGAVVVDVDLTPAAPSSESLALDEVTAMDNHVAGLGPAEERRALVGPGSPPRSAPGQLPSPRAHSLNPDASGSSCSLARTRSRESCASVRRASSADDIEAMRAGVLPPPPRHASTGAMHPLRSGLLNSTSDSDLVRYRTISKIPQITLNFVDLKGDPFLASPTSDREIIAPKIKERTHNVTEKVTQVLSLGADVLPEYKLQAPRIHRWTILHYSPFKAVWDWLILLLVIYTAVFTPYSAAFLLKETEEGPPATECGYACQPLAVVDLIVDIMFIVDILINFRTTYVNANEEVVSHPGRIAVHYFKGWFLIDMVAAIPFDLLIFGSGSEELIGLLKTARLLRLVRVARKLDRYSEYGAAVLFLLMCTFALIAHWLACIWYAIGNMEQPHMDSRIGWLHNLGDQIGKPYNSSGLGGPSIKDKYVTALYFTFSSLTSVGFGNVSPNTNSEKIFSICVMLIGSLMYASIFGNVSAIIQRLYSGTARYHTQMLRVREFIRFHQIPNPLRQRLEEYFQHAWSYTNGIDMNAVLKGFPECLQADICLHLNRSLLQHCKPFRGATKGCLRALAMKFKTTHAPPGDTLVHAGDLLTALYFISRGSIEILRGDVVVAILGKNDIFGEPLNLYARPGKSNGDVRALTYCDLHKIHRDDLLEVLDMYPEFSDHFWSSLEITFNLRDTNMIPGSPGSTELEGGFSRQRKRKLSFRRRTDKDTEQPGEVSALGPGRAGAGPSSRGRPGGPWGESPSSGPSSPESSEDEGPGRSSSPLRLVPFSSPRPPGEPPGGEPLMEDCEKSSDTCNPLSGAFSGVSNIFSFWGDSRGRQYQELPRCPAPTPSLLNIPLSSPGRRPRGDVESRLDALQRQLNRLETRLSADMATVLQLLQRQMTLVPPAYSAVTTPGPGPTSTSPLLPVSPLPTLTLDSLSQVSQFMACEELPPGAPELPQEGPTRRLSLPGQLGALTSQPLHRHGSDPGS

Compound	hERG current change (%, negative = inhibition) at 1uM [%]
CC1=C(C(=O)N2CCOCC2)C(c2cc(C)ccc2C)NC(=S)N1 (stereo not drawn)	13
COc1ccc(C2N3CC4(C)CN2CC(C)(C3)C4O)cc1 (stereo not drawn)	6.46
Cc1cc(C)cc(NC(=O)C2CCCN(c3nc(C)cc(C)n3)C2)c1 (stereo not drawn)	7.41
CS(=O)(=O)Cc1ccc(C(=O)NC2CCN(Cc3ccccc3)C2)cc1 (stereo not drawn)	13
O=C(Nc1ccc2c(c1)OCO2)C1CC(c2ccc(F)cc2)=NO1 (stereo not drawn)	13.3
CCOC(=O)C1(O)CC(C)=NN1C(=O)c1cccc(Br)c1 (stereo not drawn)	14.2
O=C1/C(=C\Nc2ccc(OC(F)(F)F)cc2)CCN1c1ncccn1	0.643
CCN(CC(=O)NCc1ccc2c(c1)OCO2)S(=O)(=O)c1ccc(F)cc1	10.6
Cc1cccc(NC(=O)c2ccc(-c3ccccc3[N+](=O)[O-])o2)c1	0.181
CS(=O)(=O)ON=C1CCN(S(=O)(=O)c2ccccc2)CC1	15.2
COc1ccc(CNC(=O)C(OC(=O)c2ccco2)c2ccc(OC)cc2)cc1 (stereo not drawn)	5.97
Cc1cccc(N=C2NC(=O)/C(=C3/C(=O)N(C)c4ccccc43)S2)c1C	3.5
COCCNC(=O)C(c1ccc(F)cc1)N(C(=O)CCC(=O)Nc1nccs1)c1cccc(C)c1 (stereo not drawn)	11.1
Cc1ccccc1NC(=S)NC(C)CCc1ccccc1 (stereo not drawn)	11.9
CC(C)(C)C(=O)C(Cl)C(=O)Nc1ccccc1 (stereo not drawn)	11.2
O=C(COC(=O)CNS(=O)(=O)c1c(F)cccc1F)NC(=O)NC1CCCCC1	-4.45
COc1ccc(CNc2cc(NCCCO)c([N+](=O)[O-])c3nonc23)cc1	12.2
Cc1cccc(C)c1NC(=O)[C@@]1(CC(=O)O)CC(/C=C/c2ccccc2)=NO1	10.7
CCOc1ccc(/C=N/NC(=O)Nc2ccccc2)cc1	12
COc1cc2c3c(c1)/C(=C1/SC(=S)NC1=O)C(=O)N3C(C)(C)C=C2C	4.66
Cc1ccc(C)c2nc(Cl)c(C3NC(=O)c4ccccc4N3)cc12 (stereo not drawn)	1.73
CC(C(=O)N1CCN(C=O)CC1)N1C(=O)c2ccccc2C1=O (stereo not drawn)	8.38
COc1cccc(NC(=O)CSc2nc(C)cs2)c1	7.37

Compound	hERG current change (%, negative = inhibition) at 1uM [%]
CCc1nc(SCC(=O)Nc2cc(C)ccc2OC)c2c(C)c(C)sc2n1	12.7
COc1ccc(NS(=O)(=O)c2cc(NC(=O)CC(=O)c3ccc([N+](=O)[O-])cc3)ccc2C)cc1	3.67
COCCn1cnc2c1c(=O)n(CC(=O)NC(=O)NC(C)(C)C)c(=O)n2Cc1ccccc1	11.3
O=C(Cn1cnc(S(=O)(=O)N2CCCC2)c1)Nc1cccc(F)c1	14.4
CNC(=O)COC(=O)c1cc2c(s1)CCCC2	15.8
CSc1nc(=O)n(-c2ccccc2)c(C)c1C(C)=O	14.8
O=C(CCCN1C(=O)/C(=C/c2cccs2)SC1=S)NNC(=O)c1ccccc1O	6.7
O.O=C(NCc1nc2ccccc2[nH]1)c1ccc(Cl)c(S(=O)(=O)N2CCCC2)c1	9.93
S=C(NCCc1ccccc1)N1CCOCC1	12.3
CCN1CCN(C(c2cccs2)C(C)NC(=O)CC(C)C)CC1 (stereo not drawn)	-9.05
O=C(CSc1nnc(-c2ccccc2Cl)o1)N1CCCC1	4.3
Cc1ccccc1NC(=O)C1CCN(c2cc(-c3ccccc3)nc3ncnn23)CC1	5.72
CCOc1ccc(N2C(=O)/C(=C\c3ccc(OC)c(O)c3)S(=O)(=O)C2c2cccc([N+](=O)[O-])c2)cc1 (stereo not drawn)	7.83
Cc1ccc(CN2CCNC(=O)C2CC(=O)O)o1 (stereo not drawn)	11
CCCCSCc1cc(C(=O)O)oc1C(C)(C)C	-0.127
CCN(CC)C(NC(=O)c1ccccc1)C(=O)c1ccccc1 (stereo not drawn)	-2.1
O=C(CN1CCN(Cc2cccc(Cl)c2)C1=O)NCc1ccccn1	6.19
Cc1c(CCOC(=O)CC23CC4CC(CC(C4)C2)C3)sc[n+]1Cc1ccccc1.[Cl-]	-12.4
Br.Cc1ccc(-c2csc3nc(=O)c(C)nn23)cc1	3.75
CCOc1ccc(CN2CCN(Cc3cn(CC)nc3C)CC2CCO)cc1 (stereo not drawn)	-6.11
COC(=O)c1ccc(N2CN=C(c3ccc(C)cc3)NC2=S)cc1	17.6
CCOc1ccc2[nH]c3c(NCCN(C)C)ncnc3c2c1	14.4
C[C@@H]1CC[C@H]2[C@@H](C)C(=O)O[C@@H]3O[C@@]4(C)CC[C@@H]1[C@]32OO4	7.37

Compound	hERG current change (%, negative = inhibition) at 1uM [%]
COC(=O)C(C#N)c1nc2ccccc2nc1N1CCN(Cc2ccc3c(c2)OCO3)CC1 (stereo not drawn)	7.71
COc1ccc(OC)c2[nH]c(=O)c(CCNC(=O)CC(C)C)cc12	7.35
Cc1cnc(NC(=O)COc2ccccc2)s1	10.8
Cc1cc(C)n(-c2ccc(C(=O)N3CCC(CO)(Cc4ccccc4)CC3)cc2)n1	11.7
COc1cccc(N2C(=O)CN(Cc3ccc(OC)c(OC)c3)C2=S)c1	17.2
Cc1ccc(C)c(S(=O)(=O)N2CCN(CC(=O)Nc3ccc([N+](=O)[O-])cc3)CC2)c1	4.71
CCC(CC)C(=O)Nc1nnc(S(=O)(=O)Nc2ccc(OC)cc2)s1	11.3
CC(=O)c1cnc(N2CCCCC2)nc1C	3.99
CC(C)Sc1cc(N2CCOCC2)nc(-c2ccccc2)n1	0.991
CN1CCN(C(=O)/C(=C\c2cccs2)NC(=O)c2cccs2)CC1	-77.3
COc1ccc(OC)c(NC(=S)NC(=O)c2ccc(Br)o2)c1	12.6
CCCCn1c(N)c(N(CCOC)C(=O)c2ccc(N3CCCC3=O)cc2)c(=O)[nH]c1=O	3.72
COc1ccc(CN2C(=NC(=O)COc3ccccc3)SC3CS(=O)(=O)CC32)cc1 (stereo not drawn)	-4.32
COc1cc(NC(=O)Cn2cnc3c(nc4n3CCCCC4)c2=O)cc(OC)c1OC	20.8
CSc1nnc(CNC(=O)C23CC4CC(CC(C4)C2)C3)n1Cc1ccccc1	14.5
Cn1c(N)c(C(=O)CSc2nnnn2-c2ccccc2)c(=O)n(C)c1=O	16
Cc1ccc(S(=O)(=O)n2nc(OC(=O)c3ccccc3F)cc2N)cc1	12.6
COc1ccc(OC)c2[nH]c(=O)c(CCNC(=O)c3ccc(S(=O)(=O)N(C)C)cc3)cc12	11.8
Cc1cccc(/C=N/NC(=O)C(C)Nc2cccc3ccccc23)n1 (stereo not drawn)	7.13
COc1ccc(CNC(=O)CSc2ncnc3nc[nH]c23)cc1	-16.6
COc1ccc(CCNC(=O)c2csc3c2CCCC3)cc1	8.79
O=C(NCc1ccccn1)c1cc(-n2cnnc2)ccc1Cl	9.18
CCCCSP1(=S)NCCCN1	12.3

Compound	hERG current change (%, negative = inhibition) at 1uM [%]
Cc1cccc(NC(=S)NCc2ccncc2)c1C	11.1
O=c1c(Cc2ccc(F)cc2)c(O)ccn1CCc1ccccn1	9.19
COC(=O)c1ccc(C2c3c(oc4ccc(F)cc4c3=O)C(=O)N2CCO)cc1 (stereo not drawn)	4.81
COCCNC(=O)c1ccccc1NC(=O)Nc1ccccc1	4.16
COc1ccccc1OCCn1cc(C#N)c2ccccc21	12.3
Cc1ccccc1Nc1nc2ccccc2n1C(C)C	0.498
O=C(NNC(=O)C1CC=CCC1C(=O)O)c1ccc(Cl)cc1 (stereo not drawn)	7.83
Cc1cc(C)nc(Nc2ncc(O)n2-c2ccc(Br)cc2)n1	24
CCOC(=O)Cc1csc(NC(=O)c2c(O)c3ccccc3n(CC(C)C)c2=O)n1	3.02
Cc1noc(C)c1S(=O)(=O)NCc1ccc2c(c1)OCO2	0.814
Cc1nnc(NC(=O)c2c(-c3ccccc3Cl)noc2C)s1	6.82
O=C(O)c1ccccc1C(=O)NC1=NN(c2ccccc2)CC1	-0.2
O=S(=O)(/C=C/c1ccccc1)Oc1ccccc1	-2.84
Cc1cc(C)c2c(N)c(C(=O)N/N=C/c3cccs3)sc2n1	11
COc1cccc(C(=O)N2CCN(C(=O)Cc3ccccc3)CC2)c1.O=C(O)C(=O)O	7.14
CC(OC(=O)Cc1c[nH]c2ccccc12)C(=O)NC1CCCCC1C (stereo not drawn)	12.6
CCOC(=O)CSc1nc(N)c2c3c(sc2n1)CCCC3	-0.605
CCCC(O)(CCN1CCOCC1)c1ccc(Br)cc1.Cl (stereo not drawn)	7.3
O=c1cc(CO)oc(C(Nc2ccccn2)c2cccc(F)c2)c1O (stereo not drawn)	-0.0884
CN(C)c1ccc(C2C3C(=O)N(c4ccc(C(=O)O)cc4)C(=O)C3ON2c2ccccc2)cc1 (stereo not drawn)	9.6
CCOC(=O)c1ccc(NC(=O)CCc2nc(-c3ccc(Cl)cc3)no2)cc1	8.98
